Whole data set: some 33,000 sequences, median “E-score (-0.5 to 0.5)” near -0.011, cut for the highest 2% near 0.28. The list shows a part of the results.
biological target: T1, Gcr1 (UniProt P07261); test: PBM E-score (8-mer binding enrichment) (E-score (-0.5 to 0.5)); higher = stronger / more preferred TF binding; most listed sequences are background and not binding sites; settings: protein concentration: 100 nM; construct: GST-full length
T1 sequence: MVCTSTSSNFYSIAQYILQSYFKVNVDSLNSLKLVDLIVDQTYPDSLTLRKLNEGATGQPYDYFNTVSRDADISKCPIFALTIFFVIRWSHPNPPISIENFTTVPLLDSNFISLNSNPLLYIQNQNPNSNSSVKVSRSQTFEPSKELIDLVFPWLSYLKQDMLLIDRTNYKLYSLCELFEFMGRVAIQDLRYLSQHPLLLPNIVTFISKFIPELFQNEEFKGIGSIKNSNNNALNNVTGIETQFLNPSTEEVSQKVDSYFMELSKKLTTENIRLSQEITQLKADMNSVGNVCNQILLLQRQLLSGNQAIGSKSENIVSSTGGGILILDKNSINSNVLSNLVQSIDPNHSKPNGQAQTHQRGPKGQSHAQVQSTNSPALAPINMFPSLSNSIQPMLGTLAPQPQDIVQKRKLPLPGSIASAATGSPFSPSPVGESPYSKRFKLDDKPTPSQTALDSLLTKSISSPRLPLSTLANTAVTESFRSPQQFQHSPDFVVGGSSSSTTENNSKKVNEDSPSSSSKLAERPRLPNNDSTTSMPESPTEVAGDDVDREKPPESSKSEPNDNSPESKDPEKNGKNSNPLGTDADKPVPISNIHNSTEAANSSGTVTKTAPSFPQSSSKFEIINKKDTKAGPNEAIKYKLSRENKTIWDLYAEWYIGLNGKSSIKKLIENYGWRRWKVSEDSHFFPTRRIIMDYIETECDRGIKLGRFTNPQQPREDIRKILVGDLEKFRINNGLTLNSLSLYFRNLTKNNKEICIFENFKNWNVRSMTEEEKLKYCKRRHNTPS
Protocol: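 Universal 'all 10-mer' protein binding microarrays (Agilent AMADID 015681) probed with GST-tagged S. cerevisiae TFs (full-length or DBD) made by in vitro transcription/translation (PURExpress), about 100-200 nM. Bound TF was detected with fluorescent anti-GST. Each ungapped 8-mer (which stands for itself and its reverse complement) is scored by the PBM enrichment score (E-score), a modified Wilcoxon-Mann-Whitney statistic from -0.5 to +0.5, computed with the Universal PBM Analysis Suite. Scale: above 0.35 generally sequence-specific binding.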

Sequence	PBM E-score
ACGACAGC	-0.112
CGTATAAG	0.147
ATCTGACG	-0.243
ATAATGTG	0.194
ACAGTTAA	-0.045
ACGCCCTA	0.178
AGCCGTGA	0.11
AGTTGCGG	0.177
GAAAACAC	-0.0836
AGTCAACG	-0.158
AGTTAATC	0.0377
ATGGAACG	-0.0103
CTTAGTAC	0.019
AGAGGTGA	-0.044
ATCCAGAC	0.0146
GCACCAAA	0.201
GTAAACTA	0.0139
GCCGCTCA	0.0602
GCACCAGC	0.0635
CGGCCCTA	-0.253
CCAAGTTC	0.12
GTGTTCCA	0.112
ATTAGGAC	0.104
TCTTACAA	-0.0892
GTTAATCA	0.0578

Sequence	PBM E-score
ACGGGAGG	-0.0387
CAACGAAA	0.0915
GCCCGGGA	0.129
CCCCGCGC	0.022
CTATGGGC	-0.0362
ATCGGCAC	0.0146
ACCACCCT	-0.114
AACACTTC	-0.0457
CTCCCACA	0.201
GCTTGTCA	-0.19
ACACGGGA	-0.151
AACCGACA	-0.00674
CAATTTGG	0.222
CGTACCGC	-0.162
AAATGGAG	0.016
GGCCTTCA	0.00737
CACGTATG	-0.182
CGGAATCA	0.0684
CAGGCAAC	-0.076
CATAACTC	0.0172
AATATACG	0.257
GCAATAAA	0.206
CGTGTCGA	-0.121
AGCCTACC	-0.167
AAGCATAT	0.015

Sequence	PBM E-score
AACCTTCA	-0.145
AGGAGTTG	0.0863
CAAAGCCC	-0.32
ACGTGGAC	-0.129
CGGCTAGA	-0.00491
ACCGGACA	-0.182
TACTCCCA	0.0425
CGCATATC	-0.0076
CAGGCTAC	0.00714
CTGGTCAC	-0.243
CCACACCC	0.019
CATGATCG	-0.161
GCCCCAGA	0.0891
AAGTCTAC	0.0258
CCGCACTC	-0.121
ATAAATTC	-0.0132
AACAAGGT	0.0443
CGCTTCGC	-0.00886
AAGTTCAC	0.00847
CAACTCCC	-0.175
CCGAGAAG	0.209
CCGACAAA	-0.0267
AGTTCACG	-0.161
CCTGGCGC	-0.0793
CCTGTCTA	0.0224

Sequence	PBM E-score
CCGCTCGA	-0.284
AACCGAAC	0.091
CGCAAGTA	-0.0406
ATAGTGTC	0.0171
CGGTGAGC	-0.0162
AGCTAGTG	0.0791
GTTAAGAA	0.0146
ATTCACGG	-0.14
CCTCGTGA	-0.101
GCGGAGAA	-0.176
TGTTATAA	0.13
AATGGACA	0.0759
CCCTGTAC	-0.0614
AACCCAAT	0.0924
CAACCCAC	0.0361
ATTTCTTG	0.0771
CATCATGC	0.066
AAGCGGAA	0.209
GTAAGCCA	0.0101
ATCCATCC	-0.153
ACAAGGTC	-0.199
AAGTCCAT	-0.156
GACGCAAC	0.0918
CCTCGAAC	0.0863
CTCTCGGA	0.0485

Sequence	PBM E-score
CATCACCG	-0.184
CGGATCTC	-0.23
TCTGAAAA	0.235
CATATAAA	0.208
GAGCCACC	0.0883
ATGCAAAA	0.067
GCACTTCA	-0.0668
GAGTTACA	-0.0793
ATATTCTC	-0.0679
CATATGAC	-0.0287
CCCATCCG	-0.101
CATTATGC	-0.0741
AGTGAAAC	-0.14
CCCATATA	0.0585
GGGACACA	-0.0586
CGCGCGCG	-0.0507
ATACTCGA	0.13
CTGTAGAC	-0.0134
TTACACAA	0.164
CTGGATTA	0.246
TCGCTGCA	-0.16
ACATGGGC	-0.104
CGCTGTAC	-0.0548
ACCCTTCT	0.101
TCCGCTAA	0.146

Sequence	PBM E-score
CGCCGTCA	-0.0681
AACGTAGC	0.0816
ATGACTTA	0.114
GCTGCTCC	0.17
GAGCGCGA	-0.0373
CACGGAAG	-0.115
ATTTACGA	0.182
GAGTGATC	-0.0286
ATCTGACC	-0.0988
AGCGTGAA	-0.0232
AGGTCCTC	-0.0446
GCTGGGCA	-0.0255
TAGGCAGA	-0.0541
CATCATCG	-0.00596
CCACCTAG	0.0499
ACCAACTA	0.215
TCCGGAGA	-0.041
AAGACCGC	-0.0754
CGCGTTAG	-0.0287
ACCTATGC	-0.193
ACGTCTTC	0.0646
CCCAGCCA	-0.298
ATGTCTAG	-0.166
CCTCGGTA	-0.131
ATACGTGA	-0.0634

Sequence	PBM E-score
GATGGTGC	0.0422
AGGTGCTA	0.231
ATGAACTA	-0.0707
ATATGAAT	0.181
CCCGTTAG	0.0113
AGGCCGGC	-0.0562
TATTTTAA	0.219
CCCATCAG	-0.0935
CGGCATAG	-0.058
ACCCCAGC	0.145
CCCGACAG	-0.19
ATTACGAA	0.192
ACGCAAAC	0.00398
CAAAATCA	0.0854
GCTCCCGA	0.122
CGAGGTCA	0.171
AAGAGTAC	-0.0794
CCGCGCCC	0.153
AATAGAGC	-0.107
GGCCCGGA	0.0323
GTCTTGGA	0.0347
CGTATGGC	-0.11

Source: the supplement of paper PMC3334620
